{"source": "the supplement of paper PMC8728848", "test_in_all_cases": "glycan array binding signal (z-score within array); higher = stronger binding", "conditions_in_all_cases": "glycan notation: IUPAC condensed, linker removed", "key": {"Gal(b1-2)Gal": {"biological_target": "Gal(b1-2)Gal", "summary_of_the_method": "(§1)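 From the Consortium for Functional Glycomics database, 3228 arrays were curated, keeping only those whose protein sequence was available. Binding is given as a within-array Z-score averaged across arrays sharing a protein sequence and across linkers. Negative Z-scores can be read as non-binding.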"}, "Gal(b1-3)Gal": {"biological_target": "Gal(b1-3)Gal", "summary_of_the_method": "as §1"}, "Gal(b1-3)Gal(b1-4)GlcNAc": {"biological_target": "Gal(b1-3)Gal(b1-4)GlcNAc", "summary_of_the_method": "as §1"}, "Gal(b1-3)GalNAc": {"biological_target": "Gal(b1-3)GalNAc", "summary_of_the_method": "as §1"}, "[1]": {"biological_target": "Gal(b1-3)GalNAc(b1-3)Gal(a1-4)Gal(b1-4)Glc", "summary_of_the_method": "as §1"}, "[2]": {"biological_target": "Gal(b1-3)GalNAc(b1-4)Gal(b1-4)Glc", "summary_of_the_method": "as §1"}, "[3]": {"biological_target": "Gal(b1-3)GalNAc(b1-4)[Neu5Ac(a2-3)]Gal(b1-4)Glc", "summary_of_the_method": "as §1"}, "Gal(b1-3)GlcNAc": {"biological_target": "Gal(b1-3)GlcNAc", "summary_of_the_method": "as §1"}, "[4]": {"biological_target": "Gal(b1-3)GlcNAc(b1-3)Gal(b1-3)GlcNAc", "summary_of_the_method": "as §1"}, "[5]": {"biological_target": "Gal(b1-3)GlcNAc(b1-3)Gal(b1-4)Glc", "summary_of_the_method": "as §1"}, "[6]": {"biological_target": "Gal(b1-3)GlcNAc(b1-3)Gal(b1-4)GlcNAc", "summary_of_the_method": "as §1"}, "[7]": {"biological_target": "Gal(b1-3)[Fuc(a1-4)]GlcNAc", "summary_of_the_method": "as §1"}, "[8]": {"biological_target": "Gal(b1-3)[Fuc(a1-4)]GlcNAc(b1-3)Gal(b1-3)[Fuc(a1-4)]GlcNAc", "summary_of_the_method": "as §1"}, "[9]": {"biological_target": "Gal(b1-3)[Fuc(a1-4)]GlcNAc(b1-3)Gal(b1-4)GlcNAc", "summary_of_the_method": "as §1"}, "[10]": {"biological_target": "Gal(b1-3)[Fuc(a1-4)]GlcNAc(b1-3)Gal(b1-4)[Fuc(a1-3)]GlcNAc", "summary_of_the_method": "as §1"}, "[11]": {"biological_target": "Gal(b1-3)[GlcNAc(b1-6)]GalNAc", "summary_of_the_method": "as §1"}, "[12]": {"biological_target": "Gal(b1-3)[Neu5Ac(a2-6)]GalNAc", "summary_of_the_method": "as §1"}, "[13]": {"biological_target": "Gal(b1-3)[Neu5Ac(a2-6)]GlcNAc(b1-6)Gal(b1-4)Glc", "summary_of_the_method": "as §1"}, "[14]": {"biological_target": "Gal(b1-3)[Neu5Ac(b2-6)]GalNAc", "summary_of_the_method": "as §1"}, "[15]": {"biological_target": "Gal(b1-4)GalNAc(a1-3)[Fuc(a1-2)]Gal(b1-4)GlcNAc", "summary_of_the_method": "as §1"}, "[16]": {"biological_target": "Gal(b1-4)GalNAc(b1-3)[Fuc(a1-2)]Gal(b1-4)GlcNAc", "summary_of_the_method": "as §1"}, "Gal(b1-4)Glc": {"biological_target": "Gal(b1-4)Glc", "summary_of_the_method": "as §1"}, "Gal(b1-4)Glc6S": {"biological_target": "Gal(b1-4)Glc6S", "summary_of_the_method": "as §1"}, "Gal(b1-4)GlcNAc": {"biological_target": "Gal(b1-4)GlcNAc", "summary_of_the_method": "as §1"}, "[17]": {"biological_target": "Gal(b1-4)GlcNAc(a1-6)Gal(b1-4)GlcNAc", "summary_of_the_method": "as §1"}, "[18]": {"biological_target": "Gal(b1-4)GlcNAc(b1-2)Man(a1-3)[Gal(b1-4)GlcNAc(b1-2)Man(a1-6)]Man(b1-4)GlcNAc(b1-4)GlcNAc", "summary_of_the_method": "as §1"}, "[19]": {"biological_target": "Gal(b1-4)GlcNAc(b1-3)Gal(b1-3)GlcNAc", "summary_of_the_method": "as §1"}, "[20]": {"biological_target": "Gal(b1-4)GlcNAc(b1-3)Gal(b1-4)Glc", "summary_of_the_method": "as §1"}, "[21]": {"biological_target": "Gal(b1-4)GlcNAc(b1-3)Gal(b1-4)GlcNAc", "summary_of_the_method": "as §1"}, "[22]": {"biological_target": "Gal(b1-4)GlcNAc(b1-3)Gal(b1-4)GlcNAc(b1-3)Gal(b1-4)GlcNAc", "summary_of_the_method": "as §1"}, "[23]": {"biological_target": "Gal(b1-4)GlcNAc(b1-3)Gal(b1-4)[Fuc(a1-3)]GlcNAc(b1-3)Gal(b1-4)[Fuc(a1-3)]GlcNAc", "summary_of_the_method": "as §1"}, "[24]": {"biological_target": "Gal(b1-4)GlcNAc(b1-3)GalNAc", "summary_of_the_method": "as §1"}, "[25]": {"biological_target": "Gal(b1-4)GlcNAc(b1-3)[Gal(b1-4)GlcNAc(b1-6)]Gal(b1-4)GlcNAc", "summary_of_the_method": "as §1"}, "[26]": {"biological_target": "Gal(b1-4)GlcNAc(b1-3)[GlcNAc(b1-6)]Gal(b1-4)GlcNAc", "summary_of_the_method": "as §1"}, "[27]": {"biological_target": "Gal(b1-4)GlcNAc(b1-6)Gal(b1-4)GlcNAc", "summary_of_the_method": "as §1"}, "[28]": {"biological_target": "Gal(b1-4)GlcNAc(b1-6)Gal(b1-4)GlcNAc(b1-6)GalNAc", "summary_of_the_method": "as §1"}, "[29]": {"biological_target": "Gal(b1-4)GlcNAc(b1-6)GalNAc", "summary_of_the_method": "as §1"}, "[30]": {"biological_target": "Gal(b1-4)GlcNAc(b1-6)[Gal(b1-3)]GalNAc", "summary_of_the_method": "as §1"}, "Gal3S(b1-3)GalNAc": {"biological_target": "Gal3S(b1-3)GalNAc", "summary_of_the_method": "as §1"}, "Gal3S(b1-3)GlcNAc": {"biological_target": "Gal3S(b1-3)GlcNAc", "summary_of_the_method": "as §1"}, "[31]": {"biological_target": "Gal3S(b1-3)[Fuc(a1-4)]GlcNAc", "summary_of_the_method": "as §1"}, "Gal3S(b1-4)Glc": {"biological_target": "Gal3S(b1-4)Glc", "summary_of_the_method": "as §1"}, "Gal3S(b1-4)Glc6S": {"biological_target": "Gal3S(b1-4)Glc6S", "summary_of_the_method": "as §1"}, "Gal3S(b1-4)GlcNAc": {"biological_target": "Gal3S(b1-4)GlcNAc", "summary_of_the_method": "as §1"}, "Gal3S(b1-4)GlcNAc6S": {"biological_target": "Gal3S(b1-4)GlcNAc6S", "summary_of_the_method": "as §1"}}, "note": "Some of the results follow.", "data": [{"binder": "RfpB (Mycobacterium tuberculosum), O05594 (protein) MAAGLVTASMSLSTAVAHAGPSPNWDAVAQCESGGNWAANTGNGKYGGLQFKPATWAAFGGVGNPAAASREQQIAVANRVLAEQGLDAWPTCGAASGLPIALWSKPAQGIKHAGPSPNWDAVAQCESGGNWAANTGNGKYGGLQFKPATWAAFGGVGNPAAASREQQIAVANRVLAEQGLDAWPTCGA", "values": [{"measurement": "glycan array binding signal (z-score)", "setting": "Gal(b1-2)Gal", "result": 1.32}, {"measurement": "glycan array binding signal (z-score)", "setting": "Gal(b1-3)Gal", "result": -0.386}, {"measurement": "glycan array binding signal (z-score)", "setting": "Gal(b1-3)Gal(b1-4)GlcNAc", "result": -0.801}, {"measurement": "glycan array binding signal (z-score)", "setting": "Gal(b1-3)GalNAc", "result": -0.202}, {"measurement": "glycan array binding signal (z-score)", "setting": "[1]", "result": -0.147}, {"measurement": "glycan array binding signal (z-score)", "setting": "[2]", "result": -0.633}, {"measurement": "glycan array binding signal (z-score)", "setting": "[3]", "result": -0.402}, {"measurement": "glycan array binding signal (z-score)", "setting": "Gal(b1-3)GlcNAc", "result": -0.409}, {"measurement": "glycan array binding signal (z-score)", "setting": "[4]", "result": -0.528}, {"measurement": "glycan array binding signal (z-score)", "setting": "[5]", "result": -0.273}, {"measurement": "glycan array binding signal (z-score)", "setting": "[6]", "result": -0.624}, {"measurement": "glycan array binding signal (z-score)", "setting": "[7]", "result": -0.622}, {"measurement": "glycan array binding signal (z-score)", "setting": "[8]", "result": -0.599}, {"measurement": "glycan array binding signal (z-score)", "setting": "[9]", "result": -0.284}, {"measurement": "glycan array binding signal (z-score)", "setting": "[10]", "result": -0.244}, {"measurement": "glycan array binding signal (z-score)", "setting": "[11]", "result": -0.253}, {"measurement": "glycan array binding signal (z-score)", "setting": "[12]", "result": -0.339}, {"measurement": "glycan array binding signal (z-score)", "setting": "[13]", "result": 0.441}, {"measurement": "glycan array binding signal (z-score)", "setting": "[14]", "result": 0.209}, {"measurement": "glycan array binding signal (z-score)", "setting": "[15]", "result": -0.206}, {"measurement": "glycan array binding signal (z-score)", "setting": "[16]", "result": 0.958}, {"measurement": "glycan array binding signal (z-score)", "setting": "Gal(b1-4)Glc", "result": 0.122}, {"measurement": "glycan array binding signal (z-score)", "setting": "Gal(b1-4)Glc6S", "result": 1.11}, {"measurement": "glycan array binding signal (z-score)", "setting": "Gal(b1-4)GlcNAc", "result": 0.645}, {"measurement": "glycan array binding signal (z-score)", "setting": "[17]", "result": -0.169}, {"measurement": "glycan array binding signal (z-score)", "setting": "[18]", "result": -0.1}, {"measurement": "glycan array binding signal (z-score)", "setting": "[19]", "result": -0.17}, {"measurement": "glycan array binding signal (z-score)", "setting": "[20]", "result": -0.146}, {"measurement": "glycan array binding signal (z-score)", "setting": "[21]", "result": -0.354}, {"measurement": "glycan array binding signal (z-score)", "setting": "[22]", "result": -0.608}, {"measurement": "glycan array binding signal (z-score)", "setting": "[23]", "result": 9.72}, {"measurement": "glycan array binding signal (z-score)", "setting": "[24]", "result": 0.332}, {"measurement": "glycan array binding signal (z-score)", "setting": "[25]", "result": -0.758}, {"measurement": "glycan array binding signal (z-score)", "setting": "[26]", "result": 2.74}, {"measurement": "glycan array binding signal (z-score)", "setting": "[27]", "result": 0.323}, {"measurement": "glycan array binding signal (z-score)", "setting": "[28]", "result": 0.001}, {"measurement": "glycan array binding signal (z-score)", "setting": "[29]", "result": -0.451}, {"measurement": "glycan array binding signal (z-score)", "setting": "[30]", "result": -0.262}, {"measurement": "glycan array binding signal (z-score)", "setting": "Gal3S(b1-3)GalNAc", "result": -0.674}, {"measurement": "glycan array binding signal (z-score)", "setting": "Gal3S(b1-3)GlcNAc", "result": -0.357}, {"measurement": "glycan array binding signal (z-score)", "setting": "[31]", "result": -0.633}, {"measurement": "glycan array binding signal (z-score)", "setting": "Gal3S(b1-4)Glc", "result": 0.415}, {"measurement": "glycan array binding signal (z-score)", "setting": "Gal3S(b1-4)Glc6S", "result": -0.122}, {"measurement": "glycan array binding signal (z-score)", "setting": "Gal3S(b1-4)GlcNAc", "result": -0.124}, {"measurement": "glycan array binding signal (z-score)", "setting": "Gal3S(b1-4)GlcNAc6S", "result": -0.1}]}]}
